Results taken from PubChem BioAssay AID1159614 (National Center for Advancing Translational Sciences (NCATS), 2016).
The campaign covered roughly 45,000 compounds. About 65 (0.1%) were called active. Calls follow the shape of the dose curve; as a rule, active = well fitted activation curve with a large enough effect; inconclusive = small, poorly fitted or top-dose-only effect; inactive = no such curve, though single readings can be large or run the other way. The list shows a part of the results.

target: Galactocerebrosidase (Homo sapiens) (UniProt P54803); assay: A Novel Cell-Based Assay to Identify Small Molecules for B -Galactocerebrosidase; settings: 145M-Twi-hGALC-G270D cells (Twitcher mouse brain line with human GALC G270D), HMU-beta-Gal fluorescence, 48 h; series mostly up to 57.5 µM; activation: at the top concentration; also: 0% is about no effect; nearly all actives have a fitted effect of over 65% in size
Chain of UniProt P54803 (P54803 whole entry, looked up): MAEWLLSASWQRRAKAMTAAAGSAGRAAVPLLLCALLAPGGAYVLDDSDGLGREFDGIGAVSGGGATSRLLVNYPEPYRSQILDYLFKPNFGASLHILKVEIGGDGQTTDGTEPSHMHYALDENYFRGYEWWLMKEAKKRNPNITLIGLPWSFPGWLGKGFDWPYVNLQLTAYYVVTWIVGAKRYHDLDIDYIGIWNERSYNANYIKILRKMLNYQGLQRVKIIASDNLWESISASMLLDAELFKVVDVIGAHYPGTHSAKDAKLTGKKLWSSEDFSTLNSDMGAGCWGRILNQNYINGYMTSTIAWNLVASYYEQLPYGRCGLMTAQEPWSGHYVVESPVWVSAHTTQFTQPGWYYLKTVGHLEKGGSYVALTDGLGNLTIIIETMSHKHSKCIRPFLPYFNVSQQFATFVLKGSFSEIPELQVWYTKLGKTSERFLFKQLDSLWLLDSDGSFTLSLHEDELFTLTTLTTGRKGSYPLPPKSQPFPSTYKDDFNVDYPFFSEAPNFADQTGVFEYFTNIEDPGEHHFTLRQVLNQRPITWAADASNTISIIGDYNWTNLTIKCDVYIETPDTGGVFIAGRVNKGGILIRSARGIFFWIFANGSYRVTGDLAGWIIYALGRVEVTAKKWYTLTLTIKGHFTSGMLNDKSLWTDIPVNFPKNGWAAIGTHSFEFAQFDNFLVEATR
Method in brief: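 Live 145M-Twi cells (Twitcher mouse brain-derived, GALC-null) stably expressing human GALC-G270D, with a wild-type GALC line, were compound-treated. Residual GALC activity was then read as fluorescence from 0.1 mM final HMU-β-gal at pH 5.2; higher signal means activation.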

activation, inactive:
COc1ccc(NC(=O)c2c(C)oc3ccc(O)c(CN4CCN(Cc5ccccc5)CC4)c23)cc1Cl 4.5%, COc1ccccc1OCC(=O)NC1CC(=O)N(c2ccc3c(c2)OCCO3)C1 (configuration not stated) -3%, CC(=O)c1cccc(Nc2cc(C)nc3nc(Cc4ccccc4)nn23)c1 -8.85%, CCCCN(CCCC)CCNC(=O)CN1C(=O)CSc2ccc(S(=O)(=O)N3CCOCC3)cc21 1.47%, Cc1cccc(NC(=O)Cn2nc3c4ccccc4n(Cc4ccccc4)cc-3c2=O)c1 -9.11%, COc1ccc(-n2nc(C(=O)Nc3ccc(Cl)cn3)c3c4ccccc4n(C)c3c2=O)cc1 -18.7%, O=C(Nc1cccc(C(F)(F)F)c1)N1CC2CCCN2c2ccccc21 (configuration not stated) -6.96%, COc1ccc2cc(-c3nnc(Nc4ccccc4)s3)c(=O)oc2c1 -2.49%, CCOC(=O)c1c(C)n(-c2ccccc2)c2ccc(OC(=O)c3cccc(C)c3)cc12 -1.29%, COc1cccc(CNC(=O)c2ccc3c(=O)n4nc(Nc5ccccc5)sc4nc3c2)c1 -14.4%, CC(=O)c1cccc(NC(=O)Nc2nnc(N3CCCC3)s2)c1 -8.69%, CC(=O)c1cc(-c2ccc(F)cc2)n(CC(=O)NC2CCC(C)CC2)c1C (configuration not stated) -5.09%, Cc1oc2ncn(C)c(=O)c2c1C(=O)NCCCN1CCCCC1C (configuration not stated) 0.551%, CCCOc1ccc(CNC(=O)c2ccc(C)c(-n3c(C)nc4cccnc43)c2)cc1 -12%, O=C(O)c1cc(O)c(O)c(O)c1 -12.8%, COc1ccc(-n2nc(C(=O)O)c(=O)n(C)c2=O)cc1 -5.23%, CCN1CCN(C(c2ccc(C)cc2)c2c(O)cc(C)n(Cc3ccco3)c2=O)CC1 (configuration not stated) -12.7%, CN(Cc1ccccc1)S(=O)(=O)c1ccc2[nH]c3c(c2c1)CCCCC3 -44.1%, Cc1ccc(N2CCN(C(=O)c3cnn(-c4ccc(F)cc4F)c3C3CCN(C(=O)OC(C)(C)C)CC3)CC2)c(C)c1 2.99%, Cc1ccccc1C(=O)OCc1cc(=O)n2nc(C(C)C)sc2n1 -23.7%, Nc1ccc(N=Nc2ccccc2)c(N)n1 -6.27%, COc1cc(OC)c(N(C)C(=O)c2cn(C3CCCC3)c(=O)c3c2c2ccccc2n3C)cc1Cl -18%, CC(C)C1C(=O)Nc2ccc(S(=O)(=O)NCCc3ccc(Cl)cc3)cc21 (configuration not stated) -19.5%, O=P(O)(O)C(O)(Cc1cccnc1)P(=O)(O)O -17.2%, COc1ccc(Cl)cc1NC(=O)CN1C(=O)C(C)(C)c2cc(S(=O)(=O)N3CCCCC3)ccc21 -8.66%, Cc1ccccc1CNC(=O)c1oc2c(c1C)-c1[nH]ncc1CC2 -8.92%, Cc1ccc2nc(Cl)c3cc(C(=O)N4CCCCC4C)sc3c2c1 (configuration not stated) -5.69%, Cc1ccccc1Nc1nn2c(=O)c3ccc(C(=O)NCCc4ccc(Cl)cc4)cc3nc2s1 -3.95%, Cc1ccsc1CN(C(=O)c1oc2ccc(Br)cc2c1C)C1CCS(=O)(=O)C1 (configuration not stated) -13.6%, Cc1cn(C)c(CC(=O)NCc2ccccc2)c1C(=O)O -9.28%, CCOc1ccc(Nc2c(S(=O)(=O)c3ccc(Cl)cc3)cnc3ccc(OCC)cc23)cc1 -10.3%, CCN1c2ccccc2-c2nc(SCC(=O)NCc3ccc(Cl)cc3)ncc2S1(=O)=O -15.2%, CCOc1ccc(C2c3c(oc4ccc(C)cc4c3=O)C(=O)N2CCCN2CCOCC2)cc1 (configuration not stated) 0.348%, Cc1cc(N2CCN(C)CC2)nc2ccc(NC(=O)Nc3cccc(Cl)c3)cc12 0.436%, Cc1cccc(-n2ncc(C(=O)N3CCN(c4ccc(C)cc4C)CC3)c2C2CCN(C(=O)OC(C)(C)C)CC2)c1 0.0204%, O=C(NCCN1CCN(c2cccc(Cl)c2)CC1)Nc1ccccc1C(F)(F)F -9.98%, Cc1ccc(CNc2nc(-c3ccco3)nn2S(=O)(=O)c2ccc3ccccc3c2)cc1 -2.31%, O=C(CSc1ncc(-c2ccccc2)[nH]1)Nc1ccc(Cl)cc1 -11.4%, O=C(CC1C(=O)N(c2ccccc2)C(=O)N1CCc1cccs1)Nc1ccc(F)cc1 (configuration not stated) -14.3%, O=C(CCCn1c(=O)c2cccn2c2cccnc21)NCc1ccccc1Br 9.49%, CSc1ncc(C(=O)N2CCN(c3cccc(Cl)c3)CC2)c(C)n1 -3.23%, CCOc1ccc(CCNC(=O)Cn2nnc(-c3ccccc3Cl)n2)cc1OCC -1.93%, Cc1c(C)n(Cc2ccc(F)cc2)c2ccc(C(=O)NCc3ccco3)cc12 -9.72%, O=C(Cn1c(=O)nc(-c2ccccc2)c2cc(Cl)ccc21)N1CCN(c2ccccc2F)CC1 -3.5%, COc1ccc2c(c1)CC(C(=O)NCCCN1CCN(c3cccc(Cl)c3)CC1)CO2 (configuration not stated) -10.9%, CCOC(=O)c1sc2ccccc2c1S(=O)(=O)N1CCN(c2cccc(C)c2)C(C)C1 (configuration not stated) -5.15%, COc1cccc2c1ncc1c(-c3ccc(C)cc3)nn(-c3ccc(F)cc3)c12 5.21%, Cc1cccc(-c2nnn3c2nc(NCc2ccc4c(c2)OCO4)c2ccccc23)c1 -20.4%, CC(C)COc1ccc(C(=O)N2CCCCC2CCN2CCCCC2)cc1 (configuration not stated) -9.28%, COc1ccc(CCNC(=O)c2cnn(-c3cccc(C)c3)c2C2CCN(C(=O)OC(C)(C)C)CC2)cc1OC -4.36%, CC(=O)c1ccc(NC(=O)c2noc3c2CSc2ccccc2-3)cc1 -7.65%, COc1cccc(NC(=O)CCc2c(C)nc3nc(CNC(=O)c4cccc(F)c4)nn3c2C)c1 -21.2%, COc1ccc(-c2cnc(C)o2)cc1S(=O)(=O)Nc1c(C)cc(C)cc1C -5.35%, CC(c1ccccc1)n1cc2c(c1-c1ccccc1Br)c(=O)n(C)c(=O)n2C (configuration not stated) -15.7%, Cc1ccc2c(c1)-c1c(cnc3cc(-c4ccc(F)cc4)nn13)CO2 -6.48%, CCc1ccc(C2=C(C)C(N3CCC(C(=O)NCc4ccccc4)CC3)=NS2(=O)=O)cc1 -4.52%, Cc1ccc(CNC(=O)c2c(O)nc3cc(C)ccn3c2=O)cc1 6.96%, Cc1ccc(Cl)cc1N1CCN(C(=O)c2c(C)oc3ncnc(N4CCCCC4)c23)CC1 -6.05%, CCc1ccc(CN2CCc3nc(N4CCN(c5ccccc5F)CC4)ncc3C2)cc1 -18.9%, CCCCOc1cccc(C(=O)Nc2cc(NC(=O)c3ccco3)ccc2OC)c1 -10.5%, COc1ccc(-n2nc(CCC(=O)N(C)O)cc2-c2ccc(Cl)cc2)cc1 -9.8%, CCc1cc(C(=O)Nc2sc(C)c(CC)c2C#N)no1 -17.6%, C#CCOc1ccc(-c2nnc(Nc3ccc(NC(C)=O)cc3)c3ccccc23)cc1 -11.1%, Cc1cc(F)ccc1NC(=O)C1CCCN(S(=O)(=O)c2ccc3c(c2)CCCC(=O)N3)C1 (configuration not stated) -18.2%, COc1ccc(Cn2c(SCC(N)=O)nc3c(sc4ccccc43)c2=O)cc1 -15.9%, Cc1cnc2c(c1SCC(=O)Nc1ccc(F)cc1F)c(=O)n(C)c(=O)n2C -3.36%, COc1ccc(S(=O)(=O)c2c(Nc3ccc(C)cc3)sc(C(=O)c3ccc4c(c3)OCO4)c2N)cc1 -15%, COc1ccc(N(Cc2cccs2)C(=O)COc2ccc(C(C)C)cc2)cc1 -26.6%, CCCCN(CCCC)CCNC(=O)c1cc(-c2cccnc2)nc2ccc(S(=O)(=O)N3CCC(C)CC3)cc12 -14%, O=C(Cc1ccc(NC(=O)N2CCCCc3ccccc32)cc1)NCc1ccccc1 -7.89%, CCOc1ccc2nc(N3CCCC(C(=O)Nc4cccc(Cl)c4C)C3)sc2c1 (configuration not stated) -11.7%, CCc1cc2c(cc3c(=O)n(CC(=O)N4CCCCC4)ncn32)s1 -9.29%, Cc1ccc(Cl)cc1NC(=O)CN1C(=O)COc2ccc(S(=O)(=O)N3CCOCC3)cc21 -13.1%, COc1ccccc1CNC(=O)c1ccc(-c2nc(CS(=O)c3ccccc3)c(C)o2)cc1 (configuration not stated) -21.4%, CCCCn1cc(S(=O)(=O)c2ccc(F)cc2)c(=O)c2ccccc21 -7.5%, COc1cccc(CNC(=O)CN2C(=O)CSc3c2c(C)nn3-c2ccccc2)c1 -7.64%, Cc1ccc2[nH]c(CSc3nnc(COc4ccccc4C)n3C)cc(=O)c2c1 -2.51%, Cc1ccc(-n2c(=O)c3ccc(C(=O)NCc4ccccc4Cl)cc3n(CC(=O)Nc3cccc(F)c3)c2=O)cc1 -0.116%, CN(C)c1ccc(CN(CC2CCCO2)C(=O)c2ccc(Br)cc2)cc1 (configuration not stated) -9.3%, CCOc1ccc(N2C(=O)N(Cc3c(F)cccc3Cl)c3ccccc3S2(=O)=O)cc1 -10.8%, Cc1ccc2[nH]c3c(=O)n(CC(=O)N4CCN(c5cccc(C(F)(F)F)c5)CC4)ncc3c2c1 -8.03%, CCCCOc1ccc(NC(=O)Cn2nnnc2-c2ccccc2F)cc1 -6.54%, Cc1cc2c(cc1C)NC(CC(=O)Nc1ccccc1SC(F)(F)F)C(=O)N2 (configuration not stated) -7.85%, CC(C)NC(=O)c1ccc(C=O)cc1 -5.19%, O=C(COCc1cc(-c2cccs2)on1)Nc1ccc(OC(F)(F)F)cc1 -22.1%, COc1cc(OC)c(NC(=O)Cn2cnc3sc(C)c(S(=O)(=O)N4CCN(C)CC4)c3c2=O)cc1Cl -0.131%, Cc1ccc(S(=O)(=O)c2nc(-c3ccco3)oc2SCC(C)C)cc1 -6.93%, COc1ccc2ncc3c(-c4ccc(C)c(C)c4)nn(CC(=O)NC4CCCCC4)c3c2c1 -5.2%, CCc1ccc(NC(=O)c2nn(-c3ccc(C)cc3)c(=O)n(C)c2=O)cc1 -7.7%, CC(C)(C)OC(=O)N1CCC(c2c(C(=O)Nc3ccc4c(c3)OCCO4)cnn2-c2ccccc2)CC1 -10.5%, CCc1ccccc1NC(=O)CN1C(=O)c2cccnc2Oc2ccc(Cl)cc21 1.5%, CCOc1ccc(Br)cc1CNCCSc1nnnn1-c1ccccc1 -17.6%, COc1ccc(CNC(=O)c2cc3c(s2)-c2c(C)cccc2OC3)cc1 -13.5%, Cc1ccc(C)c(NC(=O)C(=O)NCCc2csc3nc(-c4ccccc4C)nn23)c1 -33.2%, CCOC(=O)c1oc2c(c1C)-c1nn(Cc3ccccc3Cl)cc1CC2 -7.03%, COC(=O)NCc1c(C)nn(-c2ccccc2)c1-n1cccc1 -9.29%, Cc1cccc(-n2ncc(C(=O)NCc3ccccn3)c2C2CCN(C(=O)OC(C)(C)C)CC2)c1 -17.4%
